# In all, about 310,000 compounds went through this assay and about 14,000 (4.5%) showed an effect of 50% or more. Effects have a minus sign here. The list shows a part of the results.
# Target: human ether-à-go-go-related gene (hERG) potassium channel (human, UniProt Q12809)
# Assay: primary screen, population patch clamp on CHO cells stably expressing hERG
# 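Also: peak tail current of the secondary pulse compared with the same well before compound.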
# Chain of human ether-à-go-go-related gene (hERG) potassium channel (Q12809 whole entry, looked up): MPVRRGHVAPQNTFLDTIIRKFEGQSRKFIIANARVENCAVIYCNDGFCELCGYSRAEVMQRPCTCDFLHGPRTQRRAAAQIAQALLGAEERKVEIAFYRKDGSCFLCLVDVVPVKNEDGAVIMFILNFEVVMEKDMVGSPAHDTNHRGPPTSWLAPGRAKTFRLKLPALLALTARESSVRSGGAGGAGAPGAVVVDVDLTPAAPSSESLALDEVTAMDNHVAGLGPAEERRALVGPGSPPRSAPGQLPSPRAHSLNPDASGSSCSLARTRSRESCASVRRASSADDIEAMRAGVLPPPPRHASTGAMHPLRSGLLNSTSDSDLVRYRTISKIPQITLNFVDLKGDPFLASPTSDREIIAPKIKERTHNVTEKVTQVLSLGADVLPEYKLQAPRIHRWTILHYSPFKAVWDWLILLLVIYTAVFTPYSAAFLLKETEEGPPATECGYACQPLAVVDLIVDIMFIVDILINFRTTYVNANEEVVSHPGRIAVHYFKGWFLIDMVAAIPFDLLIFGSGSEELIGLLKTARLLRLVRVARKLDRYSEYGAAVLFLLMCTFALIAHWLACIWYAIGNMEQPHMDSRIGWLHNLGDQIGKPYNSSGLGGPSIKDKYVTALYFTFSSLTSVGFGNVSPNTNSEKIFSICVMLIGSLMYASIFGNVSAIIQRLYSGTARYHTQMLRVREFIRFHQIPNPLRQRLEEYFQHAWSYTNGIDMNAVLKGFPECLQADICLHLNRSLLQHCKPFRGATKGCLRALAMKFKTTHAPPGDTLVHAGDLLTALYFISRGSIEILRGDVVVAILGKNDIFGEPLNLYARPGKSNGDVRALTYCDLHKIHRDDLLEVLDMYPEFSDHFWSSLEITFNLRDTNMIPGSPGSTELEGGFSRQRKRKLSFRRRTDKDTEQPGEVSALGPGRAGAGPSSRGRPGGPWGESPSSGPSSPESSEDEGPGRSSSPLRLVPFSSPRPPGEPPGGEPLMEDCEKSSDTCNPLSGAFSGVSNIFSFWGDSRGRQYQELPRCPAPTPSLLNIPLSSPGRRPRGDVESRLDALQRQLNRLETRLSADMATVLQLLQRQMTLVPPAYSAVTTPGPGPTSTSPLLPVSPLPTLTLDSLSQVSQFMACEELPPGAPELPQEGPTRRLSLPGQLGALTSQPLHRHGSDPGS
row,SMILES,"hERG current change (%, negative = inhibition) at 10uM"
1,O=C1CC(c2ccco2)CC(O)=C1C=NCCN1CCNCC1 (stereo not drawn),2.1%
2,COc1cccc(C2(C)NC(=O)N(CC(=O)c3cc(C)n(C4CC4)c3C)C2=O)c1 (stereo not drawn),-35.8%
3,Cc1cc(=O)[nH]c(SCC(=O)Nc2ccc(S(=O)(=O)N3CCOCC3)cc2)n1,-3.3%
4,CC(NC=O)c1nc2ccccc2n1CCc1ccccc1 (stereo not drawn),5.34%
5,CC(Oc1ccc(S(=O)(=O)N2CCCC2)cc1[N+](=O)[O-])C(=O)N(C)c1ccccc1 (stereo not drawn),-22.4%
6,COC(=O)c1ccccc1NC1OC(=O)c2ccccc21 (stereo not drawn),18.9%
7,CCN(CC)c1ccc(NC(=O)CSc2nc(C3CC3)nc3ccccc23)cc1C,-11.2%
8,NC(=O)C1CCN(c2ncnc3c(-c4ccccc4)nsc23)CC1,0.0719%
9,Cc1ccc(N(C(=O)c2csnn2)C(C(=O)NC(C)(C)C)c2cccnc2)cc1 (stereo not drawn),6.44%
10,O=C1NC(c2ccc(Br)cc2)=N/C1=C/c1ccco1,9.25%
11,C#CCCc1cscc1/C=[N+](\[O-])c1ccc(C(=O)OCC)cc1,11.4%
12,Cc1ccccc1Cn1nnc2c1C(=O)c1ccccc1C2=O,-1.21%
13,CC(=O)CS(=O)(=O)c1ccc(Oc2ccc(S(=O)(=O)CC(C)=O)cc2)cc1,12.9%
14,O=c1[nH]cnc2c1ncn2[C@@H]1O[C@H](CO)[C@@H](O)[C@H]1O,12.5%
15,Cc1ccc(-n2c(C)nc3c(cnn3-c3ccc(C)c(C)c3)c2=O)cc1C,12.3%
16,CCOc1cccc(CN(CC)CC2CCCN(CCc3cccc(OC)c3)C2)c1O (stereo not drawn),-66.7%
17,COc1ccc(/C=C2/C(=O)N(c3ccccc3)N=C2C)c(OC)c1,5.11%
18,Cc1nn(CC(=O)NNC(=O)c2cccc(Br)c2)c(C)c1[N+](=O)[O-],-8.92%
19,CN(CCc1ccccc1)C(=O)c1cc(COc2ccc(F)cc2Cl)on1,15.6%
20,O=C(Cc1ccc(Cl)cc1)Nc1ccc(C(=O)N2CCOCC2)cc1,-1.78%
21,Cc1cc(NC(=O)COc2coc(CN3CCN(c4ccccc4F)CC3)cc2=O)no1,4.78%
22,O=C(N/N=C/c1cc(Br)cs1)c1ccccc1[N+](=O)[O-],12.3%
23,Cc1ccccc1-c1nc(CS(=O)(=O)CC(=O)NCCc2ccccc2)c(C)o1,1.61%

row,SMILES,"hERG current change (%, negative = inhibition) at 10uM"
1,Cc1n[nH]c(C)c1CCCOc1ccccc1,4.06%
2,c1ccc(C2Nc3ccccc3Oc3ccccc32)cc1 (stereo not drawn),7.7%
3,O=C(Nc1ccc2c(c1)OCCO2)C1CCCN(S(=O)(=O)c2cccnc2)C1 (stereo not drawn),6%
4,O=C(NCCS(=O)(=O)N1CCN(c2ccc(F)cc2)CC1)c1ccc(Br)o1,-60.1%
5,COCCCNC(=S)NNC(=O)c1cccnc1,22.3%
6,CCCOc1ccc(C2=CSC3=NCCN23)cc1[N+](=O)[O-],-73.6%
7,c1csc(CNc2nc3ccccc3n2CCN2CCOCC2)c1,-28%
8,CC1(C)CC2(CCO1)N1CC3(C)CN2CC(C)(C1)C3O (stereo not drawn),17.9%
9,COc1ccc(N(C(=O)c2ccco2)C(C(=O)NC2CCCC2)c2ccccc2)cc1 (stereo not drawn),-7.75%
10,O=C(c1cccc2ccccc12)C1CCCN(C(=O)C2CCOCC2)C1 (stereo not drawn),-1.78%
11,CN(C)c1ccc([N+](=O)[O-])cc1C(=O)O,-2.83%
12,Cc1c(C(=O)N(C)CCOc2ccccc2)oc2c(Cl)cccc12,-10.6%
13,CCc1nnc(NC(=O)C2CCCN2C(=O)Nc2ccccc2)s1 (stereo not drawn),15.8%
14,Cc1ccc2c(c1)/C(=C/c1ccco1)C(=O)N2,6.8%
15,Cc1nn(C)c(C(=O)NNC(=S)Nc2ccc(Cl)cc2)c1[N+](=O)[O-],18.7%
16,O=c1c(-c2ccc(Br)cc2)[n+]([O-])c2ccccc2n1OCc1ccccc1,-10.2%
17,COc1ccc(S(=O)(=O)N2CCCC2C(=O)Nc2ccc(C(C)=O)cc2)cc1 (stereo not drawn),-13.5%
18,COC(=O)c1cc(=O)nc2sc(-c3cccs3)nn12,3.54%
19,CCOc1cc(-c2nc(-c3ccccc3)c(-c3cc([N+](=O)[O-])ccc3C)[nH]2)ccc1O,3.59%
20,Cc1ccc(C(=O)NCCc2cccs2)cc1,7.84%
21,CCS(=O)(=O)N1CCN(c2ccc(C(=O)N3CCOCC3)cc2[N+](=O)[O-])CC1,-4.74%
22,CCN(CC)S(=O)(=O)c1cccc(S(=O)(=O)c2cccc(S(=O)(=O)N(CC)CC)c2)c1,-13%
